Data as given in PubChem BioAssay AID624417 (National Center for Advancing Translational Sciences (NCATS), 2012).
The campaign covered roughly 410,000 compounds. About 6,400 (1.6%) were called active. The shares of active, inactive and inconclusive entries below differ from those in the screen. Calls follow the shape of the dose curve; as a rule, active = well fitted inhibition curve with a large enough effect; inconclusive = small, poorly fitted or top-dose-only effect; inactive = no such curve, though single readings can be large or run the other way. No potency is given beside an inconclusive call; the fits are too rough.

Each molecule was assayed against Glucagon-like peptide 1 receptor (Homo sapiens) (UniProt P43220) (assay: qHTS of GLP-1 Receptor Inverse Agonists (Inhibition Mode)). Details: HEK293 GLP-1R CRE-luciferase, luminescence, 24 h, GLP-1R form is constitutively active; activity change, negative = inhibition: at 38.3 µM (top of the series) unless noted.
How it was run: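 Cells are plated, allowed 12 hours at 37 deg C, then treated with compounds for 24 hr before luciferase detection reagent is added and luminescence is read after 12 min at room temperature. The HEK293 line carries constitutively active GLP-1R with a cAMP-responsive reporter.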
% is scaled to controls: 0 for no effect and ±100 for the full control effect; potency is read from the fitted curve at half-maximal effect; tags tell the direction and shape of the fitted curve.
Also: nearly all actives have a fitted effect of over 55% in size.

Chain of UniProt P43220 (P43220 whole entry, looked up): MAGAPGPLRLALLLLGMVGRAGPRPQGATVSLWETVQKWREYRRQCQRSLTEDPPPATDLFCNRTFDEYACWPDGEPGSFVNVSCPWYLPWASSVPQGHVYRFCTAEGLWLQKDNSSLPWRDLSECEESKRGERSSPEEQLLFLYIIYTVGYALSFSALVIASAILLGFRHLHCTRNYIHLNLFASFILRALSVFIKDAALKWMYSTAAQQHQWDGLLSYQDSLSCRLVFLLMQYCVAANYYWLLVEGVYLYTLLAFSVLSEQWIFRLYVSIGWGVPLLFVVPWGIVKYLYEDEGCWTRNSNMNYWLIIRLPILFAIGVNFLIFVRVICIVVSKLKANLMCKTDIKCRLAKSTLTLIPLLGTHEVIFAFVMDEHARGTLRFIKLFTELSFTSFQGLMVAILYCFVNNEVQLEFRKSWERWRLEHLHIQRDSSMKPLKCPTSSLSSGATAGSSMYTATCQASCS

| SMILES | Potency | activity change, negative = inhibition |
| --- | --- | --- |
| C=C(C)CNC(=S)N1CCN(C(c2ccccc2)c2ccccc2)CC1 | inconclusive [inhibitor, partial curve, poor fit] |  |
| Cc1ccc(C)c(S(=O)(=O)N2CCCOC2CNC(=O)C(=O)NCCC2=CCCCC2)c1 (stereo not drawn) | inconclusive [inhibitor, partial curve, poor fit] |  |
| CCCN1C(=O)/C(=C2/C=Cc3ccccc3N2CC)SC1=S | inconclusive [inhibitor, full curve, poor fit] |  |
| Cc1cccnc1C(NC(=O)C1CCN(Cc2ccc(Oc3ccccc3)cc2)CC1)c1ccc(F)cc1 (stereo not drawn) | inconclusive [inhibitor, partial curve, poor fit] |  |
| CCOC(=O)C(=Cc1cc(=O)c(OC)co1)C(=O)OCC | inconclusive [inhibitor, single point] |  |
| CC(C)(C)C(=O)Nc1cc(S(=O)(=O)Nc2ccc(Cl)cc2)ccc1Cl | inconclusive [inhibitor, partial curve, poor fit] |  |
| CCN(c1ccccc1)S(=O)(=O)c1ccc(C(=O)NNC(=O)c2ccccc2F)cc1 | inconclusive [inhibitor, single point] |  |
| CNC(=O)c1c(NC(=O)Cc2coc3ccc(OC)cc23)sc2c1CCCC2 | inconclusive [inhibitor, single point] |  |
| COCCSc1ccccc1C(=O)N1CCC(Cc2ccccc2)CC1 | inconclusive [inhibitor, single point] |  |
| CCN(CC)S(=O)(=O)c1cc(NC(=O)COC(=O)CCc2nc3ccccc3s2)ccc1C | inconclusive [inhibitor, full curve, poor fit] |  |
| CN(C)S(=O)(=O)c1ccc(Cl)c(NC(=O)CN2CCC(Cc3ccccc3)CC2)c1 | inconclusive [inhibitor, single point] |  |
| O=S(=O)(c1ccccc1)N1CCN(CC(O)COc2ccc3c(c2)CCC3)CC1 (stereo not drawn) | inconclusive [inhibitor, single point] |  |
| O=C(c1[nH]c(C(F)(F)F)nc1-c1ccccc1)N1CCN(c2ncccn2)CC1 | inconclusive [inhibitor, single point] |  |
| CCCCCCC#Cc1cncc(C(=O)NNC(=O)Nc2cc(Cl)cc(Cl)c2)c1 | inconclusive [inhibitor, partial curve, poor fit] |  |
| Cc1cccc(Nc2nc(-c3ccncc3)cs2)c1 | inconclusive [inhibitor, full curve, poor fit] |  |
| CCc1cccc(C)c1NC(=O)CCS(=O)(=O)c1ccc2c(c1)oc(=O)n2C |  | inactive: -1.1% |
| COC(=O)C1=C(C)N(c2cc(C)cc(C)c2)/C(=C/c2ccc(O)cc2)C1=O | inconclusive [inhibitor, partial curve, poor fit] |  |
| COc1ccc(-c2noc(CSc3nc4ccccc4[nH]3)n2)cc1 | inconclusive [inhibitor, single point] |  |
| COc1ccc(S(=O)(=O)NC(=O)C2(C)CCN2C(=O)C(C)(C)c2ccccc2)cc1 (stereo not drawn) |  | inactive: 12.5% |
| Cc1ccc(Nc2c(-c3ccc(C)cc3)nc3c(C)cccn23)cc1 | active: 10 µM |  |
| C[C@H](CO)N1C[C@H](C)[C@@H](CN(C)C(=O)Nc2ccccc2)Oc2ccc(NC(=O)CCC(F)(F)F)cc2C1=O |  | inactive: 16.5% |

| SMILES | Potency | activity change, negative = inhibition |
| --- | --- | --- |
| CCOC(=O)C1=C(c2ccccc2)c2ccccc2OC1C(=O)OCC (stereo not drawn) | inconclusive [inhibitor, single point] |  |
| O=C(c1ccccc1Nc1ccc(SC(F)F)cc1)N1CCCCCC1 | inconclusive [inhibitor, single point] |  |
| O=C(NCCc1ccc(Cl)cc1)C(=O)NCC(c1cccs1)S(=O)(=O)c1ccccc1 (stereo not drawn) |  | inactive: -1.47% |
| COC(=O)c1cc2sc(C)cc2n1Cc1nc(-c2ccc(C)cc2)oc1C |  | inactive: 15.2% |
| CCOC(=O)c1ccc2nc(NC(=O)c3cccs3)sc2c1 | inconclusive [inhibitor, single point] |  |
| O=C(c1ccc(F)cc1)N1CCCC(C(=O)N2CCN(c3ccccc3)CC2)C1 (stereo not drawn) |  | inactive: 1.54% |
| CC(C)CC1=C/C(=C/c2ccc(-c3ccccc3)o2)C(=O)O1 | inconclusive [inhibitor, single point] |  |
| O=C(COc1coc(CN2CCc3ccccc3C2)cc1=O)Nc1cccc(Cl)c1 | inconclusive [inhibitor, partial curve] |  |
| O=C(NCCc1ccccc1)c1cccc(S(=O)(=O)NCc2ccccc2)c1 | inconclusive [inhibitor, single point] |  |
| CCN(c1cccc(C)c1)c1nc2ccsc2c(=O)s1 | inconclusive [inhibitor, single point] |  |
| CSc1ccccc1NC(=O)C(=O)c1c[nH]c2ccccc12 | inconclusive [inhibitor, single point] |  |
| CCCCCn1c(=O)[nH]c2cc(C(=O)N3CCN(Cc4ccc5c(c4)OCO5)CC3)ccc2c1=O | inconclusive [inhibitor, full curve, poor fit] |  |
| CN(C(=O)c1ccccc1C(=O)OCC(=O)NCc1ccccc1)C1CCCCC1 | inconclusive [inhibitor, single point] |  |
| CCc1ccccc1NC(=O)NC(CC)Cn1nnc2ccccc2c1=O (stereo not drawn) |  | inactive: -2.81% |
| CCOc1ccccc1NS(=O)(=O)c1cc(-c2cnc(C3CC3)o2)ccc1C | inconclusive [inhibitor, partial curve, poor fit] |  |
| Cc1ccc2nc(Cl)c(/C=N/Nc3ccc(C(=O)O)cc3)cc2c1 |  | inactive: -15.1% |
| O=C(c1cc2ccc3cccnc3c2[nH]1)N1CCN(c2cccc(Cl)c2)CC1 | inconclusive [inhibitor, partial curve, poor fit] |  |
| COc1ccc(C(=O)C(C)Oc2cccc(NC(=O)c3cccc([N+](=O)[O-])c3)c2)cc1 (stereo not drawn) | inconclusive [inhibitor, partial curve, poor fit] |  |
| COc1ccc(-c2c(C#CC(C)(C)O)c3ccccc3n2C)cc1 | inconclusive [inhibitor, single point] |  |
| CC(C)CN1CCN(Cc2cccn2-c2ccc(Cl)cn2)CC1CCO (stereo not drawn) | inconclusive [inhibitor, single point] |  |
| O=C1CC(Sc2ccc(Cl)cc2)C(=O)N1Cc1ccncc1 (stereo not drawn) | inconclusive [inhibitor, single point] |  |

| SMILES | Potency | activity change, negative = inhibition |
| --- | --- | --- |
| Cc1cc(C)c2c(NC(=S)NC(=O)c3ccccc3)nn(C)c2n1 |  | inactive: -11.7% |
| O=C(O)CCC(=O)NNC(=O)c1ccc([N+](=O)[O-])cc1 |  | inactive: 0.311% |
| O=C(NC1CCCCC1)C(c1ccco1)N(C(=O)c1csnn1)c1ccc(Cl)cc1 (stereo not drawn) | inconclusive [inhibitor, single point] |  |
| CCCCc1nn2c(=O)cc(COC(=O)c3ccccc3C)nc2s1 |  | inactive: 18.1% |
| COc1ccc(N/C=C\C(=O)c2ccc3ccccc3c2)cc1 |  | inactive: 10.6% |
| Clc1ccc(Cn2cnc3ccccc32)cc1 | inconclusive [inhibitor, single point] |  |
| O=C(CSc1ccc(Cl)cc1)N1CCN(c2c(Cl)cccc2[N+](=O)[O-])CC1 | active: 2.82 µM |  |
| N#Cc1c(NC(=O)C2C3C=CC(C3)C2C(=O)O)sc2c1CCCCC2 (stereo not drawn) | inconclusive [inhibitor, partial curve, poor fit] |  |
| CCOc1ccc(Br)cc1S(=O)(=O)Nc1ccc(C(=O)OCC(=O)Nc2ccc(C#N)cc2)cc1 | inconclusive [inhibitor, single point] |  |
| CN(C)C1(CNC(=O)C2CCC(=O)N(Cc3ccc(Cl)cc3)C2)CCCCC1 (stereo not drawn) | inconclusive [inhibitor, single point] |  |
| CN1CCN(c2ccc(Cl)cc2NS(=O)(=O)c2ccccc2Cl)CC1 | inconclusive [inhibitor, partial curve, poor fit] |  |
| COc1ccc(N2CCN(C(=O)c3oc4ccccc4c3C)CC2)cc1 | inconclusive [inhibitor, partial curve, poor fit] |  |
| COc1cc(Cl)ccc1OCc1cc(C(=O)N2CCN(C3CCCCC3)CC2)no1 | inconclusive [inhibitor, single point] |  |
| CO[C@H]1CN(C)C(=O)c2ccc(NC(=O)C3CCC3)cc2OC[C@H](C)N(Cc2ccc(F)cc2)C[C@@H]1C | inconclusive [inhibitor, partial curve, poor fit] |  |
| Cc1ccc(NC(=O)CCN2C(=O)c3ccccc3Sc3ncccc32)c(Cl)c1 |  | inactive: -16.9% |
| CC1=CC(C)(C)N(C(=O)CNC2CCCCC2)c2cc(C)ccc21 | inconclusive [inhibitor, partial curve, poor fit] |  |
| CC(C)COC(=O)N1CCCC(c2cc(C(=O)Nc3ccccc3Cl)no2)C1 (stereo not drawn) | inconclusive [inhibitor, partial curve, poor fit] |  |
| CC1CN(C(=O)CCC(=O)NCc2ccccc2Cl)c2ccccc2S1 (stereo not drawn) | inconclusive [inhibitor, single point] |  |
| CNC(=O)C[C@H]1C(=O)N(Cc2ccccc2)C[C@@H]1CSC |  | inactive: 3.07% |
| CC(C)C(=O)Nc1sc2c(c1-c1nc3ccccc3[nH]1)CCCC2 | inconclusive [inhibitor, partial curve, poor fit] |  |
| Cc1[nH]c2ccccc2c1/C=N/NC(=O)C1CC1(c1ccccc1)c1ccccc1 (stereo not drawn) | inconclusive [inhibitor, partial curve, poor fit] |  |
